Over roughly 33,000 sequences, “E-score (-0.5 to 0.5)” has its median near -0.035; the highest 2% begin near 0.34. Some of the results follow.
What follows are sequences tested against T1, Mot3 (UniProt P54785) (assay: PBM E-score (8-mer binding enrichment) (E-score (-0.5 to 0.5)); higher = stronger / more preferred TF binding; most listed sequences are background and not binding sites). Details: protein concentration: 200 nM; construct: GST-full length.
T1 sequence: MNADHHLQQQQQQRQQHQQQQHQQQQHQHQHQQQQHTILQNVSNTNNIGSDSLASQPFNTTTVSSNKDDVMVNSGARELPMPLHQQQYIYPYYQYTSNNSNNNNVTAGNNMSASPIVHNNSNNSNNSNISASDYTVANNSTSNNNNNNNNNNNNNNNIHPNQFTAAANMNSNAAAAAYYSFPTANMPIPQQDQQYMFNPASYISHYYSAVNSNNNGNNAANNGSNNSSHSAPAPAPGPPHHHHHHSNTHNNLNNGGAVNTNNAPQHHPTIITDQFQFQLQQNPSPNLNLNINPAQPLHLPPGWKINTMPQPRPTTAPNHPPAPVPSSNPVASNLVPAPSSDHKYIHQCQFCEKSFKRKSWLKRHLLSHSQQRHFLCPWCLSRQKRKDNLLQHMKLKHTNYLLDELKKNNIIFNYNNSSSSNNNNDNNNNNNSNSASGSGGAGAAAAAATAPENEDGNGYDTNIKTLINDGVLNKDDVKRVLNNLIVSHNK
Summary of the method: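 Masliner-normalised scans of fluorescent anti-GST signal were the basis for scoring. That signal came from GST-tagged yeast transcription factors applied at about 100-200 nM to double-stranded universal all-10-mer Agilent arrays on fresh or once-stripped slides. Each ungapped eight-base word, pooled with its reverse complement, received an E-score from the Universal PBM Analysis Suite.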

Sequence	PBM E-score
AGCCAGAT	-0.0744
GCCGCTTA	-0.156
CCGAAGAG	-0.233
GGGCGTGA	-0.066
ACCGAGAG	-0.173
AACGGACC	-0.0489
ACAAGTTC	-0.0534
AGCTGTCG	-0.0998
CCAATGAG	-0.038
TATACAAA	0.165
GTCGACAA	-0.0509
CTACCGGA	-0.289
TCGGTTCA	-0.125
CACCTATC	0.0654
CACCTGAA	0.0716
CTGCTTTA	0.102
GGACAGTA	0.282
ACAGTAAT	0.0145
GCTCGACC	-0.199
TAAAATAA	0.0938
CGGACTTC	-0.32
AAGTCGCG	-0.0309
AACGAGCG	0.0698
AATCTGGC	-0.0136
GATGCTCA	-0.084

Sequence	PBM E-score
ATTCTGCG	-0.0434
CCCTGGTA	-0.363
GTCGACGA	-0.0203
TACGTCCA	-0.0528
ACGGCGAA	0.123
ATCTGTAC	0.0132
CATGAAAC	0.0415
GGAGTGGA	-0.148
GAAAGGCA	0.469
CAACCTAA	0.192
CTGGTGCC	0.272
AAATAACT	0.228
CATTAAGG	0.113
AGCTATGG	-0.363
CGACACCG	-0.102
ACGCCCGT	0.0313
CGTTGAGC	-0.0134
TGGACGAA	0.0129
ATACCATA	0.0582
GTATAGAA	0.00862
CAAAGAAC	0.197
ACCTCAAC	-0.0649
CCATCAGA	-0.195
CTGACGTA	0.0138
CTCGGTGA	-0.2

Sequence	PBM E-score
CCCTCAAG	-0.0978
AGGATCAC	0.0739
ACTGTATA	0.0898
CTAGCGTC	-0.282
ATGAACGG	0.0117
AGTGATCG	-0.0985
CGGTTCAG	-0.077
GGGTGAGA	-0.224
CAGAAATG	0.00635
ACAGCCCC	-0.088
CCCTGACC	-0.00205
CACCACAG	-0.129
ACCAAACA	0.186
ATGATAGA	-0.00308
CCTACAAG	0.164
GAGAGATA	-0.151
CGACTCTA	-0.265
ACGCGATG	0.255
CCAGAAGA	-0.171
CCTTTCAA	-0.0166
GCGCAGAC	-0.0986
AAGGCTTC	0.0148
CTCCCGAC	-0.251
GCTAAAGC	-0.253
CCTAGATC	-0.0674

Sequence	PBM E-score
ATTATTGG	-0.116
CGTACAGC	0.0264
GCGAGCCA	-0.196
CAGATCGG	-0.144
ACTCTGCA	-0.0354
AACCCATC	-0.064
CCCGTAAG	-0.00074
ACCATTTC	-0.123
GTAGTGTA	0.224
CCTCTTTA	0.0245
ATGGACAT	0.0966
ATGCACTA	0.0858
GTTATTCA	0.183
CCAATTGA	-0.105
CAAAATAC	0.249
AGCGATAT	0.0262
GCCCTCCC	-0.206
ATCACCTG	-0.109
CGCCACCC	-0.0907
GGCAAGAC	0.291
TAAGTGAA	-0.0383
GACCCAAA	-0.074
CATGGACA	0.0261
CAGCTATG	-0.132
CCGCTTGA	-0.112

Sequence	PBM E-score
TAGGGCAA	0.046
CAGTCATA	-0.0483
ACCCGACC	-0.0746
GATCGACC	-0.158
ATAATGTA	0.192
CAGTGTTA	0.212
GCGTGGCA	-0.228
AACAGGCG	0.167
ACTCTACG	0.117
ACAGCGTA	-0.0378
GAAGGACA	0.128
AGTTTCTC	-0.214
AAATGTAA	0.346
GGAAACCA	0.0901
ACTTGTCG	-0.162
CAATCAAC	0.148
GGCCTGAA	-0.277
CTACAAAG	0.124
CTACCCAA	0.0795
GTCGCGCA	-0.148
CATGTCCA	0.121
CATTCAGC	-0.12
AAGGGCAA	0.127
ATACCCCG	-0.0852
GATCAGAA	-0.348

Sequence	PBM E-score
AGTGACAG	-0.0401
ACATTCGT	0.126
AGTATCGG	-0.224
ATGATTAA	0.045
TCACACGA	0.24
ACAGACTG	-0.0643
GAAGCGAA	0.0121
TACACTGA	0.226
GCCCTGAC	-0.0113
GACGGTAA	-0.126
AGACGTCG	-0.131
CACCTATA	0.107
ATCGGCCG	-0.282
ACAAAGGA	0.167
CTCCAATA	-0.0656
CAATTAGG	0.149
AAAGGACA	0.0482
AGAAAACA	0.181
CGGAAACC	-0.352
ACAAATGC	0.0928
GTCATGGA	-0.179
TAGCCGCA	-0.238
CCCTCAAA	-0.162
CACTGAGC	0.0343
GTGAGAAC	-0.0713

Sequence	PBM E-score
AGCAACCC	-0.302
AGGGATCA	-0.0433
ATTAATTC	0.119
GTAAAGAC	0.245
AACGGGGT	-0.194
AGACTGGC	-0.124
CTGTTGCA	-0.0202
GCTATCTA	0.0666
ACCTCTTC	-0.00819
AAAACGCC	0.203
GAGGGCCA	-0.269
CGTTAAGC	-0.0403
GGCTTACC	-0.127
CTTCACTC	0.067
AAAACACT	0.0901
AGGCCTAC	-0.0603
ATATCCTG	0.0085
CGGTTAAC	0.116
AACAGATT	0.0933
CGGGTTTC	-0.0743
AAGCCGTG	0.175
CGGTATAA	-0.0252

From the supplement of paper PMC3334620
